# Measured values: the supplement of paper PMC8728848
# The other results are listed elsewhere or left out.
# B1: Pwp3 (Candida glabrata) (protein)
# chain: MGSSHHHHHHSSGLVPRGSHMASKNPVDFTTVCQFPDNFSKKPGFLATTARLGLWITGNSYKELLNYPGTFTLTTQQASTTTPNIQLRGTDLFTTIYGLTVYPLYLLVELQGYFVPTQSGMYTFSLTGSDDAAIIFIGNPSTFPCDAFKTWPQATANDITVTDSINPSRTLYMVKGVAYPLRIAYYNGLGNGVLNAAFTDPSGTKRTDWNGYIWQYDQCSTCTYK
# How the values were obtained:
# Experiment in all cases: glycan array binding signal (z-score within array); higher = stronger binding
# Details in all cases: glycan notation: IUPAC condensed, linker removed
# [1] = molecular target: Gal(b1-4)GlcNAc(b1-3)Gal(b1-4)GlcNAc(b1-6)[Gal(b1-3)]GalNAc
# Method in brief: (§1)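 Negative Z-scores can be read as non-binding. The Z-score is calculated within each array and then averaged across arrays of one protein sequence at different concentrations or buffers and across linkers. Arrays, 3228 in all, were curated from the Consortium for Functional Glycomics database and kept only where the protein sequence was available.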
# [2] = molecular target: Gal(b1-4)GlcNAc(b1-3)Gal(b1-4)[Fuc(a1-3)]GlcNAc(b1-3)Gal(b1-4)[Fuc(a1-3)]GlcNAc
# Method in brief: as §1
# [3] = molecular target: Gal(b1-4)GlcNAc(b1-3)GalNAc
# Method in brief: as §1
# [4] = molecular target: Gal(b1-4)GlcNAc(b1-3)[Fuc(a1-3)GlcNAc(b1-6)]Gal(b1-4)Glc
# Method in brief: as §1
# [5] = molecular target: Gal(b1-4)GlcNAc(b1-3)[Gal(b1-4)GlcNAc(b1-6)]Gal(b1-4)GlcNAc
# Method in brief: as §1
# [6] = molecular target: Gal(b1-4)GlcNAc(b1-3)[GlcNAc(b1-6)]Gal(b1-4)GlcNAc
# Method in brief: as §1
# [7] = molecular target: Gal(b1-4)GlcNAc(b1-6)Gal(b1-4)GlcNAc
# Method in brief: as §1
# [8] = molecular target: Gal(b1-4)GlcNAc(b1-6)GalNAc
# Method in brief: as §1
# [9] = molecular target: Gal(b1-4)GlcNAc(b1-6)[Gal(b1-3)]GalNAc
# Method in brief: as §1
# [10] = molecular target: Gal(b1-4)GlcNAc(b1-6)[Gal(b1-4)GlcNAc(b1-3)]GalNAc
# Method in brief: as §1
# [11] = molecular target: Gal(b1-4)GlcNAc6P
# Method in brief: as §1
# [12] = molecular target: Gal(b1-6)Gal
# Method in brief: as §1
# [13] = molecular target: Gal3S(b1-3)GalNAc
# Method in brief: as §1
# [14] = molecular target: Gal3S(b1-3)GlcNAc
# Method in brief: as §1
# [15] = molecular target: Gal3S(b1-3)[Fuc(a1-4)]GlcNAc
# Method in brief: as §1
# [16] = molecular target: Gal3S(b1-4)Glc
# Method in brief: as §1
# [17] = molecular target: Gal3S(b1-4)Glc6S
# Method in brief: as §1
# [18] = molecular target: Gal3S(b1-4)GlcNAc
# Method in brief: as §1
# [19] = molecular target: Gal3S(b1-4)[Fuc(a1-3)]Glc6S
# Method in brief: as §1
# [20] = molecular target: Gal3S(b1-4)[Fuc(a1-3)]GlcNAc
# Method in brief: as §1
# [21] = molecular target: Gal3S(b1-4)[Fuc(a1-3)]GlcNAc6S
# Method in brief: as §1
# [22] = molecular target: Gal3S4S(b1-4)GlcNAc
# Method in brief: as §1
# [23] = molecular target: Gal3S6S(b1-4)GlcNAc
# Method in brief: as §1
# [24] = molecular target: Gal3S6S(b1-4)GlcNAc6S
# Method in brief: as §1
# [25] = molecular target: Gal4S(b1-4)GlcNAc
# Method in brief: as §1
# [26] = molecular target: Gal4S6S(b1-4)GlcNAc
# Method in brief: as §1
# [27] = molecular target: Gal6P(b1-4)GlcNAc
# Method in brief: as §1
# [28] = molecular target: Gal6S(b1-3)GlcNAc
# Method in brief: as §1
# [29] = molecular target: Gal6S(b1-3)GlcNAc6S
# Method in brief: as §1
# [30] = molecular target: Gal6S(b1-4)Glc
# Method in brief: as §1
# [31] = molecular target: Gal6S(b1-4)Glc6S
# Method in brief: as §1
# [32] = molecular target: Gal6S(b1-4)GlcNAc
# Method in brief: as §1
# [33] = molecular target: Gal6S(b1-4)GlcNAc6S
# Method in brief: as §1
# [34] = molecular target: GalNAc(a1-3)Gal
# Method in brief: as §1
# [35] = molecular target: GalNAc(a1-3)GalNAc
# Method in brief: as §1
# [36] = molecular target: GalNAc(a1-3)GalNAc(b1-3)Gal(a1-4)Gal(b1-4)Glc
# Method in brief: as §1
# [37] = molecular target: GalNAc(a1-3)GalNAc(b1-3)Gal(a1-4)Gal(b1-4)GlcNAc
# Method in brief: as §1
# [38] = molecular target: GalNAc(b1-3)Gal
# Method in brief: as §1
# [39] = molecular target: GalNAc(b1-3)Gal(a1-4)Gal(b1-4)GlcNAc
# Method in brief: as §1
# [40] = molecular target: GalNAc(b1-3)Gal(a1-4)Gal(b1-4)GlcNAc(b1-3)Gal(b1-4)Glc
# Method in brief: as §1
# [41] = molecular target: GalNAc(b1-3)Gal(a1-6)Gal(b1-4)Glc
# Method in brief: as §1
# [42] = molecular target: GalNAc(b1-3)GalNAc
# Method in brief: as §1
# [43] = molecular target: GalNAc(b1-3)GlcNAc
# Method in brief: as §1
# [44] = molecular target: GalNAc(b1-4)Gal(b1-4)Glc
# Method in brief: as §1
# [45] = molecular target: GalNAc(b1-4)GlcNAc
# Method in brief: as §1
binder,measurement,setting,value
B1,glycan array binding signal (z-score),[1],-0.605
same,glycan array binding signal (z-score),[2],-0.328
same,glycan array binding signal (z-score),[3],-0.473
same,glycan array binding signal (z-score),[4],-0.592
same,glycan array binding signal (z-score),[5],2.15
same,glycan array binding signal (z-score),[6],-0.33
same,glycan array binding signal (z-score),[7],2.3
same,glycan array binding signal (z-score),[8],-0.482
same,glycan array binding signal (z-score),[9],1.21
same,glycan array binding signal (z-score),[10],-0.171
same,glycan array binding signal (z-score),[11],0.154
same,glycan array binding signal (z-score),[12],-0.446
same,glycan array binding signal (z-score),[13],-0.275
same,glycan array binding signal (z-score),[14],-0.36
same,glycan array binding signal (z-score),[15],-0.757
same,glycan array binding signal (z-score),[16],-0.492
same,glycan array binding signal (z-score),[17],0.111
same,glycan array binding signal (z-score),[18],-0.691
same,glycan array binding signal (z-score),[19],-0.467
same,glycan array binding signal (z-score),[20],-0.122
same,glycan array binding signal (z-score),[21],-0.535
same,glycan array binding signal (z-score),[22],1.1
same,glycan array binding signal (z-score),[23],-0.005
same,glycan array binding signal (z-score),[24],-1.1
same,glycan array binding signal (z-score),[25],-0.265
same,glycan array binding signal (z-score),[26],-0.202
same,glycan array binding signal (z-score),[27],-0.377
same,glycan array binding signal (z-score),[28],-0.54
same,glycan array binding signal (z-score),[29],-0.447
same,glycan array binding signal (z-score),[30],1.23
same,glycan array binding signal (z-score),[31],6.29
same,glycan array binding signal (z-score),[32],0.319
same,glycan array binding signal (z-score),[33],2.41
same,glycan array binding signal (z-score),[34],0.009
same,glycan array binding signal (z-score),[35],-0.636
same,glycan array binding signal (z-score),[36],0.097
same,glycan array binding signal (z-score),[37],-0.292
same,glycan array binding signal (z-score),[38],-0.372
same,glycan array binding signal (z-score),[39],-0.89
same,glycan array binding signal (z-score),[40],-0.309
same,glycan array binding signal (z-score),[41],0.106
same,glycan array binding signal (z-score),[42],-0.961
same,glycan array binding signal (z-score),[43],-0.654
same,glycan array binding signal (z-score),[44],1.3
same,glycan array binding signal (z-score),[45],1.29
